Measurements published in the supplement of paper PMC8728848.
This is one part of the list.

Columns and labels:
Assay in all cases: glycan array binding signal (z-score within array); higher = stronger binding
Details in all cases: glycan notation: IUPAC condensed, linker removed
[1] = molecular target: GlcNAc(b1-3)Gal(b1-3)GalNAc
How it was run: (§1)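 Negative Z-scores can be read as non-binding. The Z-score is calculated within each array and then averaged across arrays of one protein sequence at different concentrations or buffers and across linkers. Arrays, 3228 in all, were curated from the Consortium for Functional Glycomics database and kept only where the protein sequence was available.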

[2] = molecular target: GlcNAc(b1-3)Gal(b1-4)Glc
How it was run: as §1

[3] = molecular target: GlcNAc(b1-3)Gal(b1-4)GlcNAc
How it was run: as §1

[4] = molecular target: GlcNAc(b1-3)Gal(b1-4)GlcNAc(b1-2)Man(a1-3)[GlcNAc(b1-3)Gal(b1-4)GlcNAc(b1-2)Man(a1-6)]Man(b1-4)GlcNAc(b1-4)GlcNAc
How it was run: as §1

[5] = molecular target: GlcNAc(b1-3)Gal(b1-4)GlcNAc(b1-2)Man(a1-3)[GlcNAc(b1-3)Gal(b1-4)GlcNAc(b1-2)Man(a1-6)]Man(b1-4)GlcNAc(b1-4)[Fuc(a1-6)]GlcNAc
How it was run: as §1

[6] = molecular target: GlcNAc(b1-3)Gal(b1-4)GlcNAc(b1-2)[GlcNAc(b1-3)Gal(b1-4)GlcNAc(b1-6)]Man(a1-6)[GlcNAc(b1-3)Gal(b1-4)GlcNAc(b1-2)Man(a1-3)]Man(b1-4)GlcNAc(b1-4)GlcNAc
How it was run: as §1

[7] = molecular target: GlcNAc(b1-3)Gal(b1-4)GlcNAc(b1-3)Gal(b1-4)GlcNAc
How it was run: as §1

[8] = molecular target: GlcNAc(b1-3)Gal(b1-4)GlcNAc(b1-3)Gal(b1-4)GlcNAc(b1-2)Man(a1-3)[GlcNAc(b1-3)Gal(b1-4)GlcNAc(b1-3)Gal(b1-4)GlcNAc(b1-2)Man(a1-6)]Man(b1-4)GlcNAc(b1-4)GlcNAc
How it was run: as §1

[9] = molecular target: GlcNAc(b1-3)Gal(b1-4)GlcNAc(b1-3)Gal(b1-4)GlcNAc(b1-2)Man(a1-3)[GlcNAc(b1-3)Gal(b1-4)GlcNAc(b1-3)Gal(b1-4)GlcNAc(b1-2)Man(a1-6)]Man(b1-4)GlcNAc(b1-4)[Fuc(a1-6)]GlcNAc
How it was run: as §1

[10] = molecular target: GlcNAc(b1-3)Gal(b1-4)GlcNAc(b1-3)Gal(b1-4)GlcNAc(b1-2)[GlcNAc(b1-3)Gal(b1-4)GlcNAc(b1-3)Gal(b1-4)GlcNAc(b1-6)]Man(a1-6)[GlcNAc(b1-3)Gal(b1-4)GlcNAc(b1-3)Gal(b1-4)GlcNAc(b1-2)Man(a1-3)]Man(b1-4)GlcNAc(b1-4)[Fuc(a1-6)]GlcNAc
How it was run: as §1

[11] = molecular target: GlcNAc(b1-3)Gal(b1-4)GlcNAc(b1-3)Gal(b1-4)GlcNAc(b1-3)Gal(b1-4)GlcNAc(b1-2)Man(a1-3)[GlcNAc(b1-3)Gal(b1-4)GlcNAc(b1-3)Gal(b1-4)GlcNAc(b1-3)Gal(b1-4)GlcNAc(b1-2)Man(a1-6)]Man(b1-4)GlcNAc(b1-4)GlcNAc
How it was run: as §1

[12] = molecular target: GlcNAc(b1-3)Gal(b1-4)GlcNAc(b1-3)Gal(b1-4)GlcNAc(b1-3)Gal(b1-4)GlcNAc(b1-2)Man(a1-3)[GlcNAc(b1-3)Gal(b1-4)GlcNAc(b1-3)Gal(b1-4)GlcNAc(b1-3)Gal(b1-4)GlcNAc(b1-2)Man(a1-6)]Man(b1-4)GlcNAc(b1-4)[Fuc(a1-6)]GlcNAc
How it was run: as §1

[13] = molecular target: GlcNAc(b1-3)Gal(b1-4)GlcNAc(b1-3)Gal(b1-4)GlcNAc(b1-3)Gal(b1-4)GlcNAc(b1-2)[GlcNAc(b1-3)Gal(b1-4)GlcNAc(b1-3)Gal(b1-4)GlcNAc(b1-3)Gal(b1-4)GlcNAc(b1-6)]Man(a1-6)[GlcNAc(b1-3)Gal(b1-4)GlcNAc(b1-3)Gal(b1-4)GlcNAc(b1-3)Gal(b1-4)GlcNAc(b1-2)Man(a1-3)]Man(b1-4)GlcNAc(b1-4)[Fuc(a1-6)]GlcNAc
How it was run: as §1

[14] = molecular target: GlcNAc(b1-3)Gal(b1-4)GlcNAc(b1-3)Gal(b1-4)GlcNAc(b1-3)Gal(b1-4)GlcNAc(b1-3)Gal(b1-4)GlcNAc(b1-2)Man(a1-3)[GlcNAc(b1-3)Gal(b1-4)GlcNAc(b1-3)Gal(b1-4)GlcNAc(b1-3)Gal(b1-4)GlcNAc(b1-3)Gal(b1-4)GlcNAc(b1-2)Man(a1-6)]Man(b1-4)GlcNAc(b1-4)GlcNAc
How it was run: as §1

[15] = molecular target: GlcNAc(b1-3)Gal(b1-4)GlcNAc(b1-3)Gal(b1-4)GlcNAc(b1-3)Gal(b1-4)GlcNAc(b1-3)Gal(b1-4)GlcNAc(b1-2)Man(a1-3)[GlcNAc(b1-3)Gal(b1-4)GlcNAc(b1-3)Gal(b1-4)GlcNAc(b1-3)Gal(b1-4)GlcNAc(b1-3)Gal(b1-4)GlcNAc(b1-2)Man(a1-6)]Man(b1-4)GlcNAc(b1-4)[Fuc(a1-6)]GlcNAc
How it was run: as §1

[16] = molecular target: GlcNAc(b1-3)Gal(b1-4)GlcNAc(b1-3)Gal(b1-4)GlcNAc(b1-3)Gal(b1-4)GlcNAc(b1-3)Gal(b1-4)GlcNAc(b1-2)[GlcNAc(b1-3)Gal(b1-4)GlcNAc(b1-3)Gal(b1-4)GlcNAc(b1-3)Gal(b1-4)GlcNAc(b1-3)Gal(b1-4)GlcNAc(b1-6)]Man(a1-6)[GlcNAc(b1-3)Gal(b1-4)GlcNAc(b1-3)Gal(b1-4)GlcNAc(b1-3)Gal(b1-4)GlcNAc(b1-3)Gal(b1-4)GlcNAc(b1-2)Man(a1-3)]Man(b1-4)GlcNAc(b1-4)[Fuc(a1-6)]GlcNAc
How it was run: as §1

[17] = molecular target: GlcNAc(b1-3)Gal(b1-4)GlcNAc(b1-3)Gal(b1-4)GlcNAc(b1-3)GalNAc
How it was run: as §1

[18] = molecular target: GlcNAc(b1-3)Gal(b1-4)GlcNAc(b1-3)GalNAc
How it was run: as §1

[19] = molecular target: GlcNAc(b1-3)Gal(b1-4)GlcNAc(b1-3)[GlcNAc(b1-3)Gal(b1-4)GlcNAc(b1-3)]GalNAc
How it was run: as §1

[20] = molecular target: GlcNAc(b1-3)Gal(b1-4)GlcNAc(b1-6)[Gal(b1-3)]GalNAc
How it was run: as §1

[21] = molecular target: GlcNAc(b1-3)Gal(b1-4)GlcNAc(b1-6)[GlcNAc(b1-3)Gal(b1-3)]GalNAc
How it was run: as §1

[22] = molecular target: GlcNAc(b1-3)Gal(b1-4)GlcNAc(b1-6)[GlcNAc(b1-3)]Gal(b1-4)GlcNAc
How it was run: as §1

[23] = molecular target: GlcNAc(b1-3)GalNAc
How it was run: as §1

[24] = molecular target: GlcNAc(b1-3)Man
How it was run: as §1

[25] = molecular target: GlcNAc(b1-3)[GlcNAc(b1-4)][GlcNAc(b1-6)]GlcNAc
How it was run: as §1

[26] = molecular target: GlcNAc(b1-3)[GlcNAc(b1-6)]Gal(b1-4)GlcNAc
How it was run: as §1

[27] = molecular target: GlcNAc(b1-3)[GlcNAc(b1-6)]GalNAc
How it was run: as §1

[28] = molecular target: GlcNAc(b1-4)Gal(b1-4)GlcNAc
How it was run: as §1

[29] = molecular target: GlcNAc(b1-4)GlcNAc
How it was run: as §1

[30] = molecular target: GlcNAc(b1-4)GlcNAc(b1-4)GlcNAc
How it was run: as §1

[31] = molecular target: GlcNAc(b1-4)GlcNAc(b1-4)GlcNAc(b1-4)GlcNAc(b1-4)GlcNAc
How it was run: as §1

[32] = molecular target: GlcNAc(b1-4)GlcNAc(b1-4)GlcNAc(b1-4)GlcNAc(b1-4)GlcNAc(b1-4)GlcNAc
How it was run: as §1

[33] = molecular target: GlcNAc(b1-4)[GlcNAc(b1-6)]GalNAc
How it was run: as §1

[34] = molecular target: GlcNAc(b1-6)Gal(b1-4)GlcNAc
How it was run: as §1

[35] = molecular target: GlcNAc(b1-6)GalNAc
How it was run: as §1

[36] = molecular target: GlcNAc6S(b1-3)Gal(b1-4)GlcNAc
How it was run: as §1

[37] = molecular target: Kdn(a2-3)Gal(b1-3)GalNAc
How it was run: as §1

[38] = molecular target: Kdn(a2-3)Gal(b1-3)GlcNAc
How it was run: as §1

[39] = molecular target: Kdn(a2-3)Gal(b1-4)Glc
How it was run: as §1

[40] = molecular target: Kdn(a2-3)Gal(b1-4)GlcNAc
How it was run: as §1

[41] = molecular target: Kdn(a2-3)Gal(b1-4)[Fuc(a1-3)]GlcNAc
How it was run: as §1

[42] = molecular target: Kdn(a2-6)Gal(b1-4)GlcNAc
How it was run: as §1

[43] = molecular target: Man(a1-2)Man(a1-2)Man(a1-3)Man
How it was run: as §1

[44] = molecular target: Man(a1-2)Man(a1-2)Man(a1-6)[Man(a1-3)]Man
How it was run: as §1

[45] = molecular target: Man(a1-2)Man(a1-3)Man
How it was run: as §1

B1: Mg1lysM (Mycosphaerella graminicola) (protein)
chain: QRNPITITPQFDCGATNSQQYVARSGDTLTKIAQEIYHDVVGVCDIARANNLADPNRIDAGTPYTIPINCQTYDRNSCL
[1]
  glycan array binding signal (z-score): -0.066
[2]
  glycan array binding signal (z-score): -0.066
[3]
  glycan array binding signal (z-score): -0.08
[4]
  glycan array binding signal (z-score): -0.085
[5]
  glycan array binding signal (z-score): -0.067
[6]
  glycan array binding signal (z-score): -0.06
[7]
  glycan array binding signal (z-score): -0.069
[8]
  glycan array binding signal (z-score): -0.062
[9]
  glycan array binding signal (z-score): -0.049
[10]
  glycan array binding signal (z-score): -0.049
[11]
  glycan array binding signal (z-score): -0.071
[12]
  glycan array binding signal (z-score): -0.081
[13]
  glycan array binding signal (z-score): -0.052
[14]
  glycan array binding signal (z-score): -0.065
[15]
  glycan array binding signal (z-score): -0.063
[16]
  glycan array binding signal (z-score): -0.011
[17]
  glycan array binding signal (z-score): -0.058
[18]
  glycan array binding signal (z-score): -0.07
[19]
  glycan array binding signal (z-score): -0.078
[20]
  glycan array binding signal (z-score): -0.077
[21]
  glycan array binding signal (z-score): -0.06
[22]
  glycan array binding signal (z-score): -0.049
[23]
  glycan array binding signal (z-score): -0.073
[24]
  glycan array binding signal (z-score): -0.057
[25]
  glycan array binding signal (z-score): -0.058
[26]
  glycan array binding signal (z-score): -0.072
[27]
  glycan array binding signal (z-score): -0.075
[28]
  glycan array binding signal (z-score): -0.09
[29]
  glycan array binding signal (z-score): -0.072
[30]
  glycan array binding signal (z-score): 16.5
[31]
  glycan array binding signal (z-score): 11.9
[32]
  glycan array binding signal (z-score): 7.47
[33]
  glycan array binding signal (z-score): -0.048
[34]
  glycan array binding signal (z-score): -0.073
[35]
  glycan array binding signal (z-score): -0.003
[36]
  glycan array binding signal (z-score): -0.081
[37]
  glycan array binding signal (z-score): -0.057
[38]
  glycan array binding signal (z-score): -0.072
[39]
  glycan array binding signal (z-score): -0.086
[40]
  glycan array binding signal (z-score): -0.058
[41]
  glycan array binding signal (z-score): -0.081
[42]
  glycan array binding signal (z-score): -0.085
[43]
  glycan array binding signal (z-score): -0.082
[44]
  glycan array binding signal (z-score): -0.051
[45]
  glycan array binding signal (z-score): -0.046
